# Source: PubChem BioAssay AID2546 (National Center for Advancing Translational Sciences (NCATS), 2010)
# About 11,000 (3.5%) of roughly 310,000 compounds were called active. The shares of active, inactive and inconclusive entries below differ from those in the screen. The call rests on the fitted dose curve; in most records, active means well fitted inhibition curve with a large enough effect; inconclusive means small, poorly fitted or top-dose-only effect, or effect the other way; inactive means flat fitted curve, though single readings scatter. No potency is given beside an inconclusive call; the fits are too rough.
# Assay: VP16 counterscreen qHTS for inhibitors of ROR gamma transcriptional activity;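 further: Gal4-VP16 expression switched on by copper sulfate through the metallothionein promoter; nearly all actives have a fitted effect of over 50% in size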
# Conditions: Drosophila S2 Gal4-VP16 UAS-luciferase, luminescence, 20 h; series mostly up to 53.6 µM
# Potency means the concentration at half of the fitted maximal effect; tags describe the fitted curve by direction and shape.
row,SMILES,Potency
1,CCOc1cccc(OCCOc2ccccc2[N+](=O)[O-])c1,"inconclusive [activator, single point]"
2,CNC(=O)C12N=CNN=C1N(C)C(=O)N2C (centres undefined),inactive
3,Oc1c(/C=N/Nc2cccc3cccnc23)ccc2ccccc12,"inconclusive [inhibitor, single point]"
4,CCC(C)NC(=O)C1c2ccccc2C(=O)N1Cc1ccc(F)cc1 (centres undefined),inactive
5,CC(C)Oc1ccccc1C1CC(=O)Nc2cc3c(cc21)OCO3 (centres undefined),active: 12.6 µM
6,CC(=O)c1ccccc1NC(=O)COC(=O)CCCN1C(=O)c2cccc3cccc(c23)C1=O,"inconclusive [activator, single point]"
7,COC(=O)c1ccc(NC(=S)NC2CC3CCC2C3)cc1 (centres undefined),"inconclusive [inhibitor, single point]"
8,COc1ccc2[nH]c(=O)c(CN(C(C)=O)c3ccc(C)cc3C)cc2c1,inactive
9,COc1ccc2nc3ccccc3nc2c1N,active: 15.8 µM
10,COc1ccccc1N=Nc1nc(-c2ccccc2)c(-c2ccccc2)[nH]1,active: 5.01 µM
11,O=c1cc(N2CCOCC2)oc2c1ccc1ccccc12,"inconclusive [activator, single point]"
12,CCOc1ccc2[nH]c(SCC(=O)OC)c([N+](=O)[O-])c2c1,inactive
13,CCc1cc2c(=O)c(-n3cnc4ccccc43)coc2cc1O,"inconclusive [activator, single point]"
14,COc1ccc(NC(=O)Nc2cccc3ccccc23)c(OC)c1,"inconclusive [inhibitor, single point]"
15,Cc1nn(Cc2ccc(F)cc2)c(C)c1NC(=O)C1c2ccccc2Oc2ccccc21,"inconclusive [inhibitor, single point]"
16,COc1cccc(-c2noc(-c3ccc4c(c3)OCO4)n2)c1,"inconclusive [inhibitor, partial curve]"
17,Cc1ccc(/C=N/n2c(-c3ccccc3)n[nH]c2=S)cc1,active: 2.82 µM
18,c1cnc2c(c1)ccc1cccnc12,"inconclusive [inhibitor, single point]"
19,COc1cc2ncnc(N[C@H](C)c3ccccc3)c2cc1OC,inactive
20,Cc1nc2ccccc2cc1OCc1ccccc1,"inconclusive [inhibitor, single point]"
21,Cc1ccc(NC(=S)NC2CCCCC2)cc1S(=O)(=O)N(C)C,"inconclusive [inhibitor, single point]"
22,Cc1ccc(COC(=O)c2ccc3ccccc3n2)cc1,"inconclusive [activator, single point]"
23,Cc1cc(C)nc(NN=C2CCCC2)n1,"inconclusive [inhibitor, partial curve]"
24,Cc1ccc(NC(=O)c2cc(N3C(=O)C=CC3=O)ccc2N2CCOCC2)cc1Cl,active: 3.16 µM
25,Cn1cc(/C=N/NC(=O)COc2ccccc2[N+](=O)[O-])c2ccccc21,active: 12.6 µM

row,SMILES,Potency
1,CC(C)(C)NC(=O)c1oc2ccccc2c1COc1ccccc1,"inconclusive [inhibitor, single point]"
2,COc1ccc(C2(c3ccc(OC)cc3)NC(=O)N(CC(=O)Nc3ccc(OC(F)F)cc3)C2=O)cc1,inactive
3,Cc1ccc(OCc2ccccc2C)c([N+](=O)[O-])n1,"inconclusive [activator, single point]"
4,O=C(c1ccco1)n1nc(-c2ccco2)nc1SCc1ccccc1,inactive
5,Cn1cc(/C=N/NC(=O)c2ccc(C#N)cc2F)c2ccccc21,"inconclusive [inhibitor, single point]"
6,COc1ccc(-n2nc(C(=O)NCC(=O)N3CCN(c4ccccn4)CC3)c3ccccc3c2=O)cc1OC,inactive
7,CCn1nnc(NC(=O)COc2ccc(C3CCCCC3)cc2)n1,"inconclusive [inhibitor, single point]"
8,CCNC(=S)Nc1cc(OCC)c(NC(=O)c2cccs2)cc1OCC,"inconclusive [inhibitor, single point]"
9,Cc1ccc(Cl)cc1NC(=S)NCc1cccn1C,active: 7.94 µM
10,Cc1ccc2cc(C)c3nnc(SCC(=O)Nc4nc5c(s4)CCCC5)n3c2c1C,inactive
11,Cc1ccc2nc3sc(C(=O)N4CCOCC4)c(N)c3cc2c1,"inconclusive [inhibitor, single point]"
12,CCn1c(SCC(=O)NCc2ccccc2)nc2c(c1=O)SC(C)C2 (centres undefined),inactive
13,COc1cccc2cc(C(=O)c3ccccc3)oc12,"inconclusive [inhibitor, single point]"
14,O=C(CCl)Nc1cc(SCC(O)CO)cc([N+](=O)[O-])c1 (centres undefined),active: 5.01 µM
15,Cc1ccc(NC(=O)c2cc3ccccc3o2)cc1,inactive
16,Cc1ccc(Nc2nc(NCC3CCCO3)nc(N)c2[N+](=O)[O-])cc1 (centres undefined),"inconclusive [inhibitor, single point]"
17,C[N+](C)(CC#Cc1ccccc1)CC(=O)c1ccc(Cl)cc1,"inconclusive [inhibitor, single point]"
18,CCCCN(C)C(=O)Cn1c(=O)oc2cc(S(=O)(=O)N3CC(C)CC(C)C3)ccc21 (centres undefined),inactive
19,COc1ccc(Sc2ccc(/C=C3\C(=O)NN(c4ccccc4)C3=O)o2)cc1,"inconclusive [inhibitor, single point]"
20,Nc1nc(CCOc2ccc(F)cc2)cs1,"inconclusive [activator, single point]"
21,O=C(NC1CCCCC1)c1ccc(-c2ccccc2[N+](=O)[O-])o1,"inconclusive [activator, full curve]"
22,COc1cc(/C=N/NC(=Nc2ccc(C)cc2)c2nc3ccccc3s2)ccc1O,"inconclusive [inhibitor, single point]"
23,CCc1ccc(/C=N/NC(=S)NCCc2ccccc2)cc1,"inconclusive [inhibitor, single point]"
24,COC(=O)c1ccc(/C=N/NC(=S)NCCN2CCOCC2)cc1,"inconclusive [inhibitor, single point]"
25,CC(C)C[C@H](NC(=O)c1nc[nH]c1C(=O)N1CCN(c2ccccc2)CC1)C(=O)OC(C)(C)C,"inconclusive [inhibitor, single point]"

row,SMILES,Potency
1,Cc1cc(C)n(S(=O)(=O)c2ccc3oc(=O)ccc3c2)n1,inactive
2,CCNC(=S)N(Cc1ccco1)Cc1cc2cc(OCC)ccc2[nH]c1=O,"inconclusive [inhibitor, single point]"
3,CC1C/C(=N\NC(=S)NC(C)C)CC(C)(C)C1 (centres undefined),active: 3.98 µM
4,Nc1nonc1-n1nnc(C(=O)N/N=C/c2cc(Br)ccc2O)c1CNc1ccccc1,active: 7.08 µM
5,CCOC(=O)N1CCN(CCC(=O)c2ccc(Cl)cc2)CC1,"inconclusive [inhibitor, single point]"
6,O=C(COC(=O)CCCc1nc2ccccc2s1)NC(=O)NCc1ccco1,inactive
7,CC(=O)c1cccc(N(C(=O)c2ccco2)C(C(=O)NC2CCCCC2)c2ccc(C)o2)c1 (centres undefined),"inconclusive [inhibitor, partial curve]"
8,CCC/C=C(\CCC)C(NS(=O)(=O)c1ccc(C(F)(F)F)cc1)c1ccc(C(=O)OC)cc1 (centres undefined),"inconclusive [inhibitor, single point]"
9,O=C(COC(=O)c1ccccc1Nc1ccccc1)NCc1ccccc1Cl,"inconclusive [inhibitor, single point]"
10,NS(=O)(=O)c1ccc(CCNC(=O)C(=O)NCC2OCCN2S(=O)(=O)c2ccc(Cl)cc2)cc1 (centres undefined),active: 15.8 µM
11,Cc1nc2ccccc2c(=O)n1/N=C/c1cccs1,"inconclusive [activator, partial curve, poor fit]"
12,CC1CCN(C(=O)c2ccc(NC(=O)c3cccs3)cc2)CC1,inactive
13,Cc1ccc(S(=O)(=O)N(C(=O)c2ccncc2)c2ccc(OC(=O)c3ccncc3)c3ccccc23)cc1,"inconclusive [inhibitor, single point]"
14,Cc1ccc(OCC(=O)NNC(=S)NCc2ccccc2)cc1,"inconclusive [inhibitor, partial curve, poor fit]"
15,CCCCCc1cc(O)c2c(C)cc(=O)oc2c1,active: 11.2 µM
16,O=C1NC(=S)S/C1=C\c1ccc(SCc2ccccc2)o1,"inconclusive [inhibitor, single point]"
17,C=CCNc1sc(C(=O)c2ccccc2)c(N)c1-c1nc2ccccc2s1,active: 15.8 µM
18,CCOc1ccc(S(=O)(=O)NCCC2=CCCCC2)c2ccccc12,"inconclusive [inhibitor, single point]"
19,CN(C)CCCN(C(=O)CCc1ccccc1)c1nc2ccc(Br)cc2s1,"inconclusive [inhibitor, single point]"
20,Clc1cccc(-c2sc(Nc3ccccc3)n[n+]2-c2ccccc2)c1Cl,"inconclusive [inhibitor, single point]"
21,COc1ccc(Cl)cc1NC(=S)NCc1ccccn1,"inconclusive [inhibitor, single point]"
22,Cc1cc(NC(=O)c2c(F)cccc2F)n(-c2nc3ccccc3[nH]2)n1,active: 6.31 µM
23,COc1cccc(C(=O)CSc2nnc(-c3cc(OC)c(OC)c(OC)c3)o2)c1,inactive
24,COC(=O)C1=C(CS(=O)(=O)c2ccccc2)NC(=O)NC1c1ccccc1 (centres undefined),inactive
